Data from article PMC4336329 (PLoS ONE, 2015).
Out of some 310,000 compounds screened, about 2,200 (0.71%) showed an effect of 50% or more. Effects have a minus sign here. The list shows a part of the results.

The molecules below were run against human ether-à-go-go-related gene (hERG) potassium channel (human, UniProt Q12809) (assay: primary screen, population patch clamp on CHO cells stably expressing hERG).
human ether-à-go-go-related gene (hERG) potassium channel, sequence (Q12809 whole entry, looked up): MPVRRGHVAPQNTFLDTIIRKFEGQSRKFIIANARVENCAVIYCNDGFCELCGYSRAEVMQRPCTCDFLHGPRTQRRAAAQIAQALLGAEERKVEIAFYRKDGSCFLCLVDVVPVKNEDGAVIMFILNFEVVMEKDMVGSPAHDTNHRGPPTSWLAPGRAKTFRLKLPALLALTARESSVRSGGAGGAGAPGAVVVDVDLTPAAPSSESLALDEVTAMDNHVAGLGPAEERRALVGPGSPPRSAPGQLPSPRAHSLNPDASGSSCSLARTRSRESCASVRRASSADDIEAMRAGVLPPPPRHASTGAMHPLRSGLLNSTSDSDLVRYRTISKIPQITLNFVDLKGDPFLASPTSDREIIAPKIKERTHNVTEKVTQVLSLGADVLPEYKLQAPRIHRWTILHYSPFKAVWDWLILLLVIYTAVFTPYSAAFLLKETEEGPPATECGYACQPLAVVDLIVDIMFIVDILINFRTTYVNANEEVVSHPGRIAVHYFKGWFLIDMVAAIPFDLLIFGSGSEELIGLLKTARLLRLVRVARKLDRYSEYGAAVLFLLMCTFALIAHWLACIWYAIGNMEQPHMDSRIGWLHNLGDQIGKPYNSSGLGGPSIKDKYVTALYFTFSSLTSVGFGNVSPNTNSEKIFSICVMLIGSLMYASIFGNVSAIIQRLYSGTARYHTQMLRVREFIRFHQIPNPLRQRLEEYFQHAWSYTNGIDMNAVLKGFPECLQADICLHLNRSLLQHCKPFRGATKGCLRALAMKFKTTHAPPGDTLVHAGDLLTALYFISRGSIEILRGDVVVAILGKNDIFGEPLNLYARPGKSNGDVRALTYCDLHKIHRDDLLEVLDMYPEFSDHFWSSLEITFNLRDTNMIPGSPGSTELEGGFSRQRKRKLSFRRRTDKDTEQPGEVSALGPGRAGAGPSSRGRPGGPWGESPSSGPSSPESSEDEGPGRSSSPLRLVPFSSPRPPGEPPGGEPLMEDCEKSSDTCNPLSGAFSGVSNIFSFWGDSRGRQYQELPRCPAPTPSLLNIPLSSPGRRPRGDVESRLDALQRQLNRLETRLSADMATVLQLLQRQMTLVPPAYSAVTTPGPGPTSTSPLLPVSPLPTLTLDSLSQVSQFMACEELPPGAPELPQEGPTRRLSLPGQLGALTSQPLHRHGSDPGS
With `CCCc1nnc(NC(=O)Cn2c(=O)oc3ccccc32)s1` the “hERG current change (%, negative = inhibition) at 1uM” value was 19.1%. In the case of `O=S(=O)(c1ccccc1)N1CCCCC1c1cccnc1` (centres unmarked), the “hERG current change (%, negative = inhibition) at 1uM” value is reported as 14.4%. `CCc1ccc(NC(=O)CCCn2nc(CC)n3c(cc4occc43)c2=O)cc1` was tested, and the “hERG current change (%, negative = inhibition) at 1uM” value was 7.94%. `O=C(N/N=C/c1ccc2c(c1)OCO2)c1ccc(Cl)cc1Cl` was tested, and the “hERG current change (%, negative = inhibition) at 1uM” value was 14%. In the case of `O=C(Nc1cccc(NC(=O)c2ccc3c(c2)OCO3)c1)c1ccccc1`, the “hERG current change (%, negative = inhibition) at 1uM” value is reported as -0.193%. `O=C(Nc1ccc(F)cc1)c1ccc(Cn2cnnn2)cc1` was tested, and the “hERG current change (%, negative = inhibition) at 1uM” value was 11.1%. For `Cc1ccc(C[n+]2ccccc2)cc1.[Br-]`, the “hERG current change (%, negative = inhibition) at 1uM” value was 16.5%. For `O=C(CN1CCCCCC1)Nc1ccccc1C(=O)Nc1ccccc1`, the “hERG current change (%, negative = inhibition) at 1uM” value was -2.27%. In the case of `Cc1cccc(COc2ccc(/C=N/NC(=O)c3nnn(-c4nonc4N)c3CN3CCCCC3)cc2)c1`, the “hERG current change (%, negative = inhibition) at 1uM” value is reported as 17.9%. For `CCCn1c(N2CCN(S(=O)(=O)Cc3ccccc3)CC2)nc2ccccc21`, the “hERG current change (%, negative = inhibition) at 1uM” value was 12.7%. For `Cc1cc(N2C(=O)CCC2=O)ccc1NC(=O)c1cccs1`, the “hERG current change (%, negative = inhibition) at 1uM” value was 15.5%. For `O=C(Nc1ccc(NC(=O)C2CCCCC2)cn1)c1ccco1`, the “hERG current change (%, negative = inhibition) at 1uM” value was 7.92%. In the case of `COCCCN(C(=O)Nc1ccccc1)C(C)c1ccncc1` (centres unmarked), the “hERG current change (%, negative = inhibition) at 1uM” value is reported as -1.23%. `COc1ccc(C(=O)NC(=S)N2CCCCC2)cc1` was tested, and the “hERG current change (%, negative = inhibition) at 1uM” value was 2.59%. In the case of `COc1cc(-c2noc(C)c2/C=C/c2ccc(OC(C)=O)cc2)cc(OC)c1OC`, the “hERG current change (%, negative = inhibition) at 1uM” value is reported as 14.2%. With `CC(C)CCNC(=O)c1ccc(Cl)c(NC(=O)c2ccccc2F)c1` the “hERG current change (%, negative = inhibition) at 1uM” value was 10.5%. With `O=C(COc1ccc([N+](=O)[O-])cc1)N(Cc1cccs1)C1CCS(=O)(=O)C1` (centres unmarked) the “hERG current change (%, negative = inhibition) at 1uM” value was 13.3%. For `O=C(Nc1nncs1)c1ccc(N2C(=O)C3C4C=CC(C4)C3C2=O)cc1` (centres unmarked), the “hERG current change (%, negative = inhibition) at 1uM” value was 11%. In the case of `CCOC(=O)Cn1c(=O)n(C2CCCC2)c(=O)c2ccccc21`, the “hERG current change (%, negative = inhibition) at 1uM” value is reported as 1.1%. With `Cn1c(N2CCN(S(=O)(=O)c3ccc(F)cc3)CC2)nc2ccccc21` the “hERG current change (%, negative = inhibition) at 1uM” value was -1.42%. With `C=CCON1C(=O)C(=O)N(OCC=C)[C@H]2CCCC[C@H]21` the “hERG current change (%, negative = inhibition) at 1uM” value was 8%. `NC(=O)c1ccc(NC(=O)CSc2nnc(C3CCCCC3)n2N)cc1` was tested, and the “hERG current change (%, negative = inhibition) at 1uM” value was 15%. With `COc1ccc(N(C(=O)CNC(=O)c2ccco2)C(C(=O)NC2CCCCC2)c2ccco2)cc1` (centres unmarked) the “hERG current change (%, negative = inhibition) at 1uM” value was 8.78%. In the case of `COc1ccccc1C(c1nnnn1CS(=O)(=O)c1ccc(C)cc1)N1CCSCC1` (centres unmarked), the “hERG current change (%, negative = inhibition) at 1uM” value is reported as 3.5%. In the case of `CCOc1ccc2c(c1)c(C(C)=O)c(C)n2Cc1ccco1`, the “hERG current change (%, negative = inhibition) at 1uM” value is reported as -11.3%. In the case of `Cc1cccc(CC(=O)Nc2cc(C)c3c(=O)oc4ccccc4c3n2)c1`, the “hERG current change (%, negative = inhibition) at 1uM” value is reported as 11%. `O=C(NCCCN1CCN(c2ccccc2F)CC1)C1CCC(=O)N1C1CCCC1` (centres unmarked) was tested, and the “hERG current change (%, negative = inhibition) at 1uM” value was 4.57%. In the case of `CCO[C@@H]1OC(C(=O)NCc2ccccc2)=C[C@H](c2ccccc2)[C@H]1CCCO`, the “hERG current change (%, negative = inhibition) at 1uM” value is reported as 12.6%. For `Cn1cc(/C=C(\NC(=O)c2ccccc2)C(=O)N2CCOCC2)c2ccccc21`, the “hERG current change (%, negative = inhibition) at 1uM” value was 19.2%. With `CCN(CC)C(=O)COC(=O)C1=NN(c2cc(C)ccc2C)C(=O)CC1` the “hERG current change (%, negative = inhibition) at 1uM” value was 14.3%. With `COc1cc(/C=C2\C(=N)N3N=C(S(C)(=O)=O)SC3=NC2=O)ccc1OC(=O)c1ccco1` the “hERG current change (%, negative = inhibition) at 1uM” value was 9.48%. With `C[C@]12CCC(=O)C[C@@H]1CC[C@@H]1[C@@H]2CC[C@]2(C)[C@@H](C(=O)COC(=O)CCC(=O)[O-])CC[C@@H]12.[Na+]` the “hERG current change (%, negative = inhibition) at 1uM” value was 18%. With `COc1ccc(N=C2C(=O)N3c4c(cccc42)C(C)=CC3(C)C)cc1` the “hERG current change (%, negative = inhibition) at 1uM” value was 11.8%. With `CCOC(=O)CSc1nnc(CNC(=O)c2cccs2)n1Cc1ccccc1` the “hERG current change (%, negative = inhibition) at 1uM” value was -8.11%. In the case of `CCOCCCNCc1cc(Br)ccc1OCc1ccccc1`, the “hERG current change (%, negative = inhibition) at 1uM” value is reported as -33.8%. `Cc1ccc(C)n1-c1ccc(N(C)C)cc1` was tested, and the “hERG current change (%, negative = inhibition) at 1uM” value was 2.63%. `CN1C(=O)C(C)(C)c2cc(S(=O)(=O)NCCc3ccc(Cl)cc3)ccc21` was tested, and the “hERG current change (%, negative = inhibition) at 1uM” value was -2.96%. With `COc1ccc(CC(=O)NCc2nnc(SCC(=O)Nc3ccccc3)n2C)cc1` the “hERG current change (%, negative = inhibition) at 1uM” value was 17.7%. `CCC(C(=O)NC1CCCCCC1)c1ccccc1` (centres unmarked) was tested, and the “hERG current change (%, negative = inhibition) at 1uM” value was 13.7%. For `COc1ccc(Cl)cc1NC(=O)CN(C)C(=O)c1ccc(-n2nc(C)cc2C)cc1`, the “hERG current change (%, negative = inhibition) at 1uM” value was 5.36%. With `N=C1c2c(cc(=O)n3c2[nH]c2ccccc23)CN1CCN1CCOCC1` the “hERG current change (%, negative = inhibition) at 1uM” value was 14.1%. With `CN1C(=O)CC(N2CCN(C(c3ccccc3)c3ccccc3)CC2)C1=O` (centres unmarked) the “hERG current change (%, negative = inhibition) at 1uM” value was 4.51%. For `CCOc1ccc(S(=O)(=O)NCCC(=O)N2CCCN(C)CC2)cc1`, the “hERG current change (%, negative = inhibition) at 1uM” value was 8.1%. For `Cc1ccc(NC(=O)CNC(=O)Cc2cccc3ccccc23)nc1`, the “hERG current change (%, negative = inhibition) at 1uM” value was 2.51%. In the case of `COc1ccccc1CN=C1NC(=O)C(CC(=O)Nc2ccc(C(C)=O)cc2)S1` (centres unmarked), the “hERG current change (%, negative = inhibition) at 1uM” value is reported as 1.73%. `COc1ccccc1CNC(=O)C1CCC(CNC(=O)[C@@H]2Cc3ccccc3CN2)CC1` (some centres unmarked) was tested, and the “hERG current change (%, negative = inhibition) at 1uM” value was 10.3%. With `CN(C)CCNC(=O)C1CC(=O)N(c2ccc(F)c(Cl)c2)C1` (centres unmarked) the “hERG current change (%, negative = inhibition) at 1uM” value was -12%. For `CCCCn1c(SCC(=O)Nc2cc(C)on2)nc2cc(S(N)(=O)=O)ccc21`, the “hERG current change (%, negative = inhibition) at 1uM” value was 7.31%. For `N/C(=N\OC(=O)c1ccc2c(c1)OCO2)c1cccnc1`, the “hERG current change (%, negative = inhibition) at 1uM” value was -3.99%. `CCOc1ccccc1C(=O)NC1CC2CCCC(C1)N2Cc1ccc(C)cc1` (centres unmarked) was tested, and the “hERG current change (%, negative = inhibition) at 1uM” value was -43.6%. In the case of `CCOc1cc(C(=O)CCC(=O)OCC(=O)NC(=O)NCC(C)C)ccc1O`, the “hERG current change (%, negative = inhibition) at 1uM” value is reported as -4.66%. For `O=C(O)c1c(NC(=O)N2CCOCC2)sc2c1CCCC2`, the “hERG current change (%, negative = inhibition) at 1uM” value was 13.9%. For `O=C(CN1CCc2ccccc2C1)Nc1ccc(F)cc1`, the “hERG current change (%, negative = inhibition) at 1uM” value was 14.6%. With `COc1ccc(/C=C2\C(=O)NC(=O)N(Cc3ccccc3)C2=O)c(OC)c1OC` the “hERG current change (%, negative = inhibition) at 1uM” value was 8.15%. `COC(=O)CSc1nc2nc(C)cc(C)n2n1` was tested, and the “hERG current change (%, negative = inhibition) at 1uM” value was 5.07%. `Cc1ccc2nc(SCC(=O)N3CCCCC3)nc(=O)n2c1` was tested, and the “hERG current change (%, negative = inhibition) at 1uM” value was 12.4%.
